Test results: the supplement of paper PMC3334620
Whole data set: some 33,000 sequences, median “E-score (-0.5 to 0.5)” near -0.054, cut for the highest 2% near 0.39. This is one part of the list.

molecular target: Ylr278c (UniProt Q05854); assay: PBM E-score (8-mer binding enrichment) (E-score (-0.5 to 0.5)); higher = stronger / more preferred TF binding; most listed sequences are background and not binding sites; conditions: protein concentration: 200 nM; construct: GST-DNA-binding domain
How it was run: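 The E-score, a modified Wilcoxon-Mann-Whitney statistic, was computed by the Universal PBM Analysis Suite for every ungapped eight-base word pooled with its reverse complement. Scans behind it were normalised with masliner after bound GST-tagged yeast transcription factors were detected with fluorescent anti-GST. The proteins, at about 100-200 nM, had been applied to universal all-10-mer Agilent arrays made double-stranded by primer extension.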

Sequence	PBM E-score
AGACTATG	-0.158
ATGAGTTC	0.019
GTATTATA	0.102
ACGGGCAG	-0.0679
CCACAGTA	-0.247
ATTTGTTA	0.0214
GAGATTAA	-0.0135
AGAGGCTC	-0.16
CATTAATG	-0.0565
GGGACTAC	-0.0279
CTTGGTAC	-0.148
AATATGCC	-0.0168
CTTTTCAC	-0.102
CTGATTAA	0.00608
CGAGCGGA	0.381
CAGTAATA	-0.0469
CAATGCAC	-0.105
CATAGATG	-0.18
GGAGAGCA	-0.00586
GAGGGCGC	0.0234
GACGCAGA	0.0423
GAGTTAAA	-0.051
GGAAGGAC	0.0596

Sequence	PBM E-score
CCTGGGTC	-0.0105
AGTTGATG	-0.201
AAGTACAG	-0.365
ATCTGAAG	-0.189
AATCGTTC	-0.109
AAATTGCT	-0.0913
CGCAGCAA	-0.169
ACCCACAC	0.00637
GGGCGCTA	-0.0584
ATCCCAAG	0.0131
CGTCCAAG	0.00044
ATCTTATC	0.00826
TGTCTAAA	-0.172
GTAGTCCA	-0.0814
CTCCTCAC	-0.185
GCGCGGCA	0.16
TACCGTAA	0.0882
GCTATCGA	-0.00696
AAAGGGTC	-0.0323
AGGGCACG	-0.0859
AGTCCAAT	-0.0114
TCAACACA	-0.151
CTCAATAA	-0.129

Sequence	PBM E-score
CCTCGTGC	-0.0283
CCTCGGAA	0.39
CAAGCGAC	-0.00016
ACTCATAG	-0.275
GCTTAGCA	-0.0298
AACGATAG	-0.0537
ATACGTTA	-0.255
CTAGCCCC	0.0452
ATCAGAGC	-0.0306
GCACTAGA	-0.16
ACCCTCTA	-0.192
ACATGGAT	-0.11
AACTGCGT	-0.252
CATCTTTA	-0.0964
AAAATTAT	0.214
ATAGTCCC	-0.153
AACGACAC	-0.0599
ATCCGGAA	0.432
GATGAACA	-0.0375
CTTGTTTC	-0.0304
ATCTTCAT	0.0807
CCTCTCAC	-0.157
CCCAAGTC	-0.101

Sequence	PBM E-score
CACAGAAA	-0.0328
GACTATGA	-0.11
CGGCATAA	0.296
CTCAGGGC	-0.0882
CTGCCTCC	0.0802
TTAACCAA	-0.136
GAAACGCA	0.0174
GTAGGAAC	-0.191
GAATACCA	0.00717
AAAGGGGC	-0.163
AAGCCGGG	0.229
TCCCTACA	-0.00917
CGTTGTGA	-0.0637
CTTCCGCA	0.198
ACATATCA	-0.0989
CTGGAAAG	-0.262
CGAGTGGC	-4e-05
CTATGGAA	-0.113
ACCTTGGC	-0.104
CAAACATG	-0.239
CTTGGTTC	0.0347
ACGTCGTC	-0.0751
CACAATAC	-0.0279

Sequence	PBM E-score
AGCCAAAA	-0.223
AGTTCGTA	0.0596
TGCGTCCA	-0.0912
CCTGCACA	-0.173
ATGCATAA	-0.242
CCCGGTAC	0.253
CTTGGTGC	-0.247
ATGCATCC	-0.024
GAATCCTA	0.0325
AAAGCCTA	-0.184
TCTCTTCA	-0.0515
CTCCCCAG	-0.157
ATGTGTTA	-0.168
TAGGTGAA	0.00725
CTAGGGCA	-0.219
AGTCTCGC	-0.176
AACGGCAA	-0.0988
GCGACCAA	0.00386
CGCGTAAA	-7e-05
CATTCATA	0.129
ACCCTAAG	-0.173
